The full ranking holds about 33,000 sequences; the median of “E-score (-0.5 to 0.5)” is about -0.021, and the highest 2% start at about 0.32. This is one part of the list.
Molecular target: T1, Zap1 (UniProt P47043)
T1 sequence: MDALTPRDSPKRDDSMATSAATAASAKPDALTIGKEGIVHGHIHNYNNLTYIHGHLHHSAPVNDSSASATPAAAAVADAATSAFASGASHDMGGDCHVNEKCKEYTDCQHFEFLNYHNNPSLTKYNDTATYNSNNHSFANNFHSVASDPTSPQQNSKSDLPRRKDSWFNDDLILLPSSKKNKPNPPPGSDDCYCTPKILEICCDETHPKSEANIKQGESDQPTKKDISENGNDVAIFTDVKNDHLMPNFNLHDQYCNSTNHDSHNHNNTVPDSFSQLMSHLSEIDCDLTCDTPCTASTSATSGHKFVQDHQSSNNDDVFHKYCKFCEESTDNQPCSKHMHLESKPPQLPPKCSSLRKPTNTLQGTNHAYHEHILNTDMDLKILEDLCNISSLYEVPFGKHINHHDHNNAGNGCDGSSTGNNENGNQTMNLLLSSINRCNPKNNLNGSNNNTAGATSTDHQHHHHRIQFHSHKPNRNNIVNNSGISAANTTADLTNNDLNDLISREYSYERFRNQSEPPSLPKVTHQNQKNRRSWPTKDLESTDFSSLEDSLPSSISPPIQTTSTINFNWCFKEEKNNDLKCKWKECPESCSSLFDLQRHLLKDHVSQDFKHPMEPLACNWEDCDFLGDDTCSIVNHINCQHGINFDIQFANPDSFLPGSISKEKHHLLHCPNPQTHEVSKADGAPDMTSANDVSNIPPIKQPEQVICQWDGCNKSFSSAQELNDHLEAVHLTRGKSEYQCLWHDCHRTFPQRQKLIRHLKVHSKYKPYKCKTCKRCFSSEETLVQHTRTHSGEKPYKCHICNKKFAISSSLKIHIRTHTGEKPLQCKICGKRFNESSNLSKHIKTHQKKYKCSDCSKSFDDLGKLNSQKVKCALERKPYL
Experiment: PBM E-score (8-mer binding enrichment) (E-score (-0.5 to 0.5)); higher = stronger / more preferred TF binding; most listed sequences are background and not binding sites
Details: protein concentration: 200 nM; construct: GST-full length
Method in brief: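 Bound GST-tagged yeast transcription factors, applied at about 100-200 nM to double-stranded universal all-10-mer Agilent arrays, were detected with fluorescent anti-GST. Scans were normalised with masliner. A modified Wilcoxon-Mann-Whitney statistic, the E-score, was assigned to each ungapped eight-base word pooled with its reverse complement by the Universal PBM Analysis Suite.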

Sequence | PBM E-score
AATCTCGT | -0.067
TAAAAATA | 0.267
ATGAAGTA | 0.043
AGTTCAGC | -0.273
GTCGTCAA | 0.00042
CGATTGGA | -0.0902
GAATATAC | -0.0293
AATCGACG | -0.0961
ACTATAAA | 0.166
GGGCACTA | -0.0582
ATATCTTG | -0.023
AACAACAG | -0.0493
CAAGGACA | -0.0888
CTGGTAGC | -0.014
CATAGTCG | -0.103
ACCCTCCG | 0.228
CGTATTGA | 0.13
AAGAATGC | -0.013
ACCGGACG | 0.124
AGCGCTTG | -0.18
GTGGTAAC | 0.36
CGTCAAAA | 0.121
ATATGGAA | -0.174
ATGTGTGC | -0.333
CTTGCGGA | 0.00423

Sequence | PBM E-score
TAGTGCAA | 0.036
CATAACGA | -0.0645
CGCAATAA | 0.174
ACGTAACA | 0.157
ATCTAAGA | 0.0622
GGACCGAA | 0.0782
ACGGCCGT | 0.00961
AAGGGAAC | 0.0495
ATTACAGG | 0.218
ATGACAGA | -0.0197
ACATATAA | 0.239
GTTAGCCA | -0.0438
AACTACGT | -0.123
GGATGCAC | -0.113
GCCGGCAC | -0.0403
AGTTGGTC | 0.0383
ATTCGAAA | 0.134
GGGGCCAC | 0.0811
AACGCCCT | -0.0779
ACGCTCGG | -0.00542
CGGAGGAG | -0.2
CAACAGCG | -0.197
CAAATCGC | -0.12
GAGGGACC | 0.0579
CTTAAGTC | 0.0161

Sequence | PBM E-score
CAAGGAGA | -0.191
AAAACGAT | 0.0614
AGCGACAT | -0.115
CCGAACCG | -0.0432
ATTATACA | 0.0605
CCTCCAAC | -0.0378
CACAGAAG | -0.0477
ACGATATA | 0.0765
TCATCCGA | 0.202
CCGACGCG | -0.133
TAGCAGCA | -0.0224
ACATGCTC | -0.116
TAATGGGA | -0.234
ATATAAGC | -0.0201
CCGTGCCA | -0.322
CACGAAAC | -0.0882
GGCAAAAC | -0.00371
GCAATACC | 0.191
AGGACAAC | 0.116
GCGACCTA | 0.00631
CCTAAGCG | -0.112
GCTGGTGA | 0.0777
ATAAAAGG | 0.25
GAAATTTA | 0.0377
GGAAAGAC | -0.213

Sequence | PBM E-score
AGTCCAAG | 0.00822
TCTATTAA | 0.123
GCTGTGAC | 0.0557
ACGACTAC | -0.117
CTATAGGA | -0.0709
TCTGTTCA | -0.0546
ATCCTCCA | -0.187
ACACCCCA | 0.0819
CAACAGTG | -0.0935
CGATTGAG | 0.0636
ACTATGAG | -0.127
GAATTATA | 0.105
CTACTACA | 0.0823
AATGTCGA | 0.107
GGAAGAAC | 0.115
CGACGACA | -0.113
AGGAGTCA | -0.0639
CGTTCGAG | -0.0294
ACCACGGC | 0.0275
CAATTGTC | 0.028
ACACTACG | -0.0863
ATCTCGGA | -0.0207
GACTTATA | 0.189
GCATTGTA | -0.0386
AGTGTCGA | 0.127

Sequence | PBM E-score
ACAGGAAC | 0.0522
CGGGCTTC | -0.211
GGCGACGA | -0.183
TTCATAAA | 0.0271
AAATGCGA | 0.102
ACGTGGCA | -0.291
CCGCCTCG | 0.0926
AGGTTGTA | 0.338
ACCCACGG | 0.0434
GCGCGGAC | 0.054
GTAATTTA | 0.0558
ACCTGAAT | 0.136
CCCTGGTC | -0.13
CCCAATGC | -0.146
ACCAAAGG | 0.109
CGTTTTAA | 0.149
CTAGATTC | -0.113
ATCGAACA | 0.15
CTAACTCA | 0.0162
ACATTTTA | 0.177
GCGTTCGA | 0.0467
CGGATGGC | -0.135
CTACTCAC | 0.0123
ATTCGGGC | -0.247
ACTCCACA | -0.0594

Sequence | PBM E-score
AACGGTTG | 0.123
ACGAATTA | -0.112
AGACGGAA | -0.142
TCCCTAAA | -0.0128
GAGTATAA | 0.0781
AAAGTGAA | 0.0771
AAGTGACT | -0.104
CCTGGTGA | 0.0199
CAATCTCC | -0.155
AACCCGAC | 0.244
GCCAGAGC | -0.311
CCCGCCAA | -0.0257
AGCCCAAA | 0.0444
GGCGCAAA | -0.0447
CGGGCGGC | -0.192
ACAGCAGT | -0.0406
ATGTTTCC | 0.108
CGAAGCGA | -0.193
AAACTCAA | 0.192
AGAGGGAC | -0.253
CGTGGGTC | 0.136
GAGTCGGA | -0.239
GGTGCAAC | -0.066
AGGACGCG | -0.0612
CACGACCG | -0.0596

Sequence | PBM E-score
AGCTCGCG | 0.027
ACGCCGAG | -0.0289
AAAAGACG | 0.00477
ACAAGTTA | 0.111
ACGTCTGC | -0.272
AGCTTATG | 0.00685
CAGTAGAG | -0.135
CTGGCAAG | -0.0104
ATTATCTC | -0.024
AGAGCCGG | -0.164
CGGTTCGA | 0.186
TAAGGAAA | -0.029
ATTGTTAC | 0.245
GGCTGGTA | -0.129
AGTTGTGC | 0.0703
CCATCGGG | 0.074
AGGTGCAG | -0.242
CCGATTCC | -0.132
ATACTGGC | -0.131
AGAGCCCA | -0.201
GAATTCTC | -0.17
GATCCACC | -0.192

From the supplement of paper PMC3334620
